What all share (experiment): Primary Screen for Target Class Profiling of Small Molecule Inhibitors of Methyltransferases
Assay [1] has as its target Glycine N-methyltransferase (Homo sapiens) (UniProt Q14749). Conditions: purified enzyme, MTase-Glo SAH luminescence; measured here: GNMT inhibition; at 40 µM; stronger effect = lower value. In short, it runs like this:
(§1)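 Each enzyme was reacted with SAM and its substrate, with compounds tested once at 40 uM; SAH formed was read by MTase-Glo luminescence.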

Assay [2] addresses Guanidinoacetate N-methyltransferase (Homo sapiens) (UniProt Q14353). The settings on record: purified enzyme, MTase-Glo SAH luminescence; measured here: GAMT inhibition; at 40 µM; stronger effect = lower value. In short, it runs like this:
as §1

Assay [3] addresses Histamine N-methyltransferase (Homo sapiens) (UniProt P50135). Conditions: purified enzyme, MTase-Glo SAH luminescence; measured here: HNMT inhibition; at 40 µM; stronger effect = lower value. In outline:
as §1

The target of assay [4] is Nicotinamide N-methyltransferase (Homo sapiens) (UniProt P40261). The settings on record: purified enzyme, MTase-Glo SAH luminescence; measured here: NNMT inhibition; at 40 µM; stronger effect = lower value. In short, it runs like this: as §1
For assay [5], the target named is Phenylethanolamine N-methyltransferase (Homo sapiens) (UniProt P11086). The settings on record: purified enzyme, MTase-Glo SAH luminescence; measured here: PNMT inhibition; at 40 µM; stronger effect = lower value. In short, it runs like this:
as §1

The other results are listed elsewhere or left out. Further columns of the screen follow, without active or inactive calls.
% is scaled to controls: 0 for no effect and ±100 for the full control effect.

In the case of `CCOC(=O)C1CCCN(c2nc3c(S(=O)(=O)c4ccc(Br)cc4)nnn3c3ccccc23)C1` (stereo not drawn), the activity change, negative = inhibition in assay [1] was -4.38%; in assay [2] it was 2.82%; in assay [3] it was 5.37%; in assay [4] it was 5.46%; in assay [5] it was -1.2%.

In the case of `COC(=O)c1ccc([C@@H]2Nc3c(Cl)cccc3[C@@H]3C=CC[C@@H]32)cc1`, the activity change, negative = inhibition in assay [1] was -15%; in assay [2], 1.58%; in assay [3], -8.44%; in assay [4] it was -13.7%; in assay [5] it was -9.97%.

`CC1(C(=O)NC2CCCCC2)Cn2c(cc3occc32)C(=O)N1Cc1ccccc1Cl` (stereo not drawn): the activity change, negative = inhibition in assay [1] is -5.63%; in assay [2], -6.78%; in assay [3], 4.23%; in assay [4], -4.99%; in assay [5], -9.66%.

On to `CC(C)CCNC(=O)C1(C)Cn2nc(C(=O)N3CCOCC3)cc2C(=O)N1C` (stereo not drawn), for which the activity change, negative = inhibition in assay [1] was determined as 5.02%; in assay [2], 0.251%; in assay [3], 5.75%; in assay [4] it was 9.33%; in assay [5], 4.13%.

As for `Cc1ccc(N2C(=O)c3cc4occc4n3CC2(C)C(=O)NC2CCCCC2C)cc1` (stereo not drawn), the activity change, negative = inhibition in assay [1] came out at 2.52%; in assay [2], 0%; in assay [3], 4.79%; in assay [4] it was 4.33%; in assay [5], 2.32%.

As for `Cc1ccc(S(=O)(=O)N2CCC(Oc3ncccc3C(=O)N(C)C)C2)cc1C` (stereo not drawn), the activity change, negative = inhibition is -3.95% in assay [1]; -4.74% in assay [2]; -3.15% in assay [3]; -12.3% in assay [4]; -5.17% in assay [5].

Turning to `CCC(C)NC(=O)Cn1nc2n(C)c(=O)c3ccc(C(=O)NC4CCCCC4)cc3n2c1=O` (stereo not drawn), the activity change, negative = inhibition amounted to 5.72% in assay [1]; 0% in assay [2]; 5.22% in assay [3]; 5.46% in assay [4]; 5.49% in assay [5].

In the case of `COc1ccccc1N1CCN(CC(C(=O)NC(C)(C)C)c2ccccc2)CC1` (stereo not drawn), the activity change, negative = inhibition is 1.96% in assay [1]; 0.077% in assay [2]; 10% in assay [3]; -15.5% in assay [4]; 0.293% in assay [5].

As to `O=C(Nc1ccccc1)c1cc([N+](=O)[O-])ccc1Cl`, the activity change, negative = inhibition is -9.21% in assay [1]; 2.63% in assay [2]; 0.237% in assay [3]; -6.28% in assay [4]; 5.75% in assay [5].

As to `COc1ccc(NC(=O)N2Cc3c(sc4c3CCCC4)-n3cccc3C2c2cccc(C)c2)cc1OC` (stereo not drawn), the activity change, negative = inhibition was -2.73% in assay [1]; -0.229% in assay [2]; 0.799% in assay [3]; -8.95% in assay [4]; 0.725% in assay [5].

As for `C[C@H]1CC2C3CCC4=CC(=O)C=C[C@]4(C)[C@@]3(Cl)[C@@H](O)C[C@]2(C)[C@@]1(O)C(=O)CO` (stereo partly drawn), the activity change, negative = inhibition was -11.2% in assay [1]; 1.73% in assay [2]; -2.14% in assay [3]; -5.77% in assay [4]; 3.88% in assay [5].

With `C=C1C(=O)O[C@@H]2/C=C(\C)CC/C=C(\C)CC[C@@H]12`, the activity change, negative = inhibition is 1.69% in assay [1]; -4.71% in assay [2]; 7.19% in assay [3]; -15.2% in assay [4]; 3.17% in assay [5].

With `CC(=O)O[C@H]1CC2C(COC(=O)CC(C)C)=CO[C@@H](OC(=O)CC(C)C)C2[C@]12CO2` (stereo partly drawn), the activity change, negative = inhibition in assay [1] was 2.29%; in assay [2], 10.2%; in assay [3] it was 9.01%; in assay [4], -1.93%; in assay [5], 2.6%.

Regarding `COc1ccc(Nc2nc3c(S(=O)(=O)c4ccc(F)cc4)nnn3c3ccccc23)c(OC)c1`, the activity change, negative = inhibition came out at 2.78% in assay [1]; 1.06% in assay [2]; 11.1% in assay [3]; 14.3% in assay [4]; 3.61% in assay [5].

In the case of `CCOc1ccccc1NC(=O)N1CCCCCCNC(=O)CC1c1ccccc1` (stereo not drawn), the activity change, negative = inhibition in assay [1] is -2.71%; in assay [2], 0.804%; in assay [3], -0.879%; in assay [4], 1.59%; in assay [5], -1.88%.

As for `Cc1ccc(-c2nnn3c2nc(Cl)c2ccccc23)cc1`, the activity change, negative = inhibition in assay [1] is -7.29%; in assay [2], 0.661%; in assay [3] it was -2.96%; in assay [4], -6.01%; in assay [5] it was -6.56%.

For `Cc1cccc(C(=O)N2CCCCCNC(=O)CC2c2ccccc2)c1` (stereo not drawn), the activity change, negative = inhibition in assay [1] is -1.57%; in assay [2] it was 1.71%; in assay [3], -0.788%; in assay [4], -1.28%; in assay [5] it was -0.162%.

For the compound `O=C(NC1CCOCC1)c1cccc(S(=O)(=O)N2CCC[C@H]2CO)c1`, the activity change, negative = inhibition in assay [1] was -3.17%; in assay [2] it was -5.73%; in assay [3] it was -0.816%; in assay [4], -11.9%; in assay [5], -8.03%.

In the case of `Cc1ccc(-n2nc(C)c([C@H]3C=C[C@@H](OC(=O)N[C@H](C)c4ccccc4)C3)c2C)cc1Cl`, the activity change, negative = inhibition in assay [1] was -8.81%; in assay [2], -10%; in assay [3] it was -7.36%; in assay [4], -16.7%; in assay [5], -9.9%.

As to `CCCCSCc1cc(C(=O)N2CC(C)(C)C(C)(O)C2)oc1C` (stereo not drawn), the activity change, negative = inhibition is -1.72% in assay [1]; 1.14% in assay [2]; 1.19% in assay [3]; -3.2% in assay [4]; 3.75% in assay [5].

With `CC[N+]1(CC)CCC(=C(c2ccccc2)c2ccccc2)C1C` (stereo not drawn), the activity change, negative = inhibition in assay [1] is 2.23%; in assay [2] it was 5.3%; in assay [3], -6.84%; in assay [4], -11.2%; in assay [5] it was 5.59%.

On to `COc1ccccc1CNS(=O)(=O)c1ccc2[nH]c3c(c2c1)CCCC3`, for which the activity change, negative = inhibition in assay [1] was -6.79%; in assay [2], 1.16%; in assay [3], -3.62%; in assay [4], -15%; in assay [5], -10.1%.

`COc1ccccc1-n1cc(C(=O)N2CCCC2c2nonc2C)cn1` (stereo not drawn): the activity change, negative = inhibition was -1.74% in assay [1]; 0.111% in assay [2]; 2.11% in assay [3]; 1.93% in assay [4]; 17.1% in assay [5].

As to `CC(C)CCn1c(=O)c2ccc(C(=O)NC3CCCC3)cc2n2c(=O)n(C)nc12`, the activity change, negative = inhibition in assay [1] is -0.216%; in assay [2], 3.46%; in assay [3], 2.74%; in assay [4] it was 2.67%; in assay [5], -2.18%.

As for `CC1=C(CC(=O)O)c2cc(F)ccc2/C1=C\c1ccc(S(C)=O)cc1` (stereo not drawn), the activity change, negative = inhibition in assay [1] was -6.46%; in assay [2] it was 11.5%; in assay [3], -2.6%; in assay [4], -7.8%; in assay [5], 1.65%.

As for `CCCN1C(=O)c2cc3ccc(OC)cc3n2CC1(C)C(=O)NC1CCCCC1` (stereo not drawn), the activity change, negative = inhibition in assay [1] is 3.79%; in assay [2], 0.249%; in assay [3], 3.88%; in assay [4] it was 4.3%; in assay [5], 0.681%.

Turning to `N[C@@H](CC(=O)N1CCn2c(nnc2C(F)(F)F)C1)Cc1[nH]nc2c(F)c(F)ccc12`, the activity change, negative = inhibition in assay [1] is 5.04%; in assay [2], 2.9%; in assay [3], 4.99%; in assay [4], -12.7%; in assay [5], -1.77%.

For the compound `O=C1NC(=NCc2cccs2)S/C1=C/c1ccc2ncccc2c1`, the activity change, negative = inhibition in assay [2] was 2.28%; in assay [4], -15.5%; in assay [5], 1.44%.

As for `Cc1ccc(C)c(Cn2nc3n(C)c(=O)c4ccc(C(=O)NCC(C)C)cc4n3c2=O)c1`, the activity change, negative = inhibition in assay [1] is 1.65%; in assay [2], 2.6%; in assay [3], 5.44%; in assay [4], -1.21%; in assay [5], -3.12%.

Turning to `COc1ccc2cc3n(c2c1)CC(C)(C(=O)NC1CCCCC1)N(CCN1CCOCC1)C3=O` (stereo not drawn), the activity change, negative = inhibition was 0.95% in assay [1]; 4.2% in assay [2]; -2.01% in assay [3]; -0.511% in assay [4]; -5.08% in assay [5].

The values above are taken from PubChem BioAssay AID1745853 (National Center for Advancing Translational Sciences (NCATS), 2022).
